# According to a collection of fitness landscapes (doi:10.1016/j.celrep.2020.107928):
# Whole data set: some 81,000 sequences, median “one-hybrid fitness for binding parS DNA” near -0.17, cut for the highest 2% near 0.51. Some of the results follow.
# B1: Caulobacter ParB omega fusion; a variant is named by its letters at X, in order, B8GW30 (parent)
# chain: MESVVVGEPGMSEGRRGLGRGLSALLGEVDAAPAQAPGEQLGGSREAPIEILQRNPDQPRRTFREEDLEDLSNSIREKGVLQPILVRPSPDTAGEYQIVAGERAWRAAQRAGLKTVPIMVRELDDLAVLEIGIIENVQRADLNVLEEALSYKVLMEKFERTQENIAQTIGKSXSHVANXMRLLXLPDEVQSYLVSGELTAXHARAIAAAADPVALAKQIIEGGLSVRETEALARKAPNLSAGKSKGGRPPRVKDTDTQALESDLSSVLGLDVSIDHRGSTGTLTITYATLEQLDDLCNRLTRGI
# Variants of: B1
# Experiment: one-hybrid fitness for binding parS DNA (scaled: cognate 1, non-cognate 0); higher = stronger binding
# Settings: with parS DNA site
# Summary of the method: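 The reporter was HIS3, with the binding site 19 bp from the promoter, in E. coli USO used for bacterial one-hybrid selection of Caulobacter ParB libraries with four specificity codons randomised. Growth was on M9 lacking histidine, with 0.1 mM IPTG and 5 mM 3-AT, for 48 hours at 37°C. Illumina sequencing covered plasmids before and after selection; three replicate libraries were pooled and variants with under 10 reads dropped. A fitness score is the log change in variant-to-wild-type read ratio, rescaled to the cognate and non-cognate references.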
row,Variant,one-hybrid fitness for binding parS DNA
1,HTCI,≤ 0.2
2,RKLC,0.921
3,TDLV,≤ 0.2
4,PGLH,≤ 0.2
5,LKVR,≤ 0.2
6,MYNS,≤ 0.2
7,RCQL,≤ 0.2
8,GYAY,≤ 0.2
9,VHRY,≤ 0.2
10,NLQD,≤ 0.2
11,TCTA,≤ 0.2
12,NAVS,≤ 0.2
13,SPKQ,≤ 0.2
14,PRVW,≤ 0.2
15,ETHH,≤ 0.2
16,EILP,0.345
17,RFIT,0.508
18,RDAP,≤ 0.2
19,PMPY,≤ 0.2
20,RLYI,≤ 0.2
21,CFMS,≤ 0.2
22,RLTY,0.48
23,YIRW,≤ 0.2
24,EDST,≤ 0.2

row,Variant,one-hybrid fitness for binding parS DNA
1,YPGR,≤ 0.2
2,SKGR,≤ 0.2
3,YSRA,≤ 0.2
4,ICAY,≤ 0.2
5,QRSL,≤ 0.2
6,HQPT,≤ 0.2
7,RVGD,≤ 0.2
8,PCRE,≤ 0.2
9,KKTG,≤ 0.2
10,HVTF,≤ 0.2
11,PHLE,≤ 0.2
12,EDEN,≤ 0.2
13,ARVI,≤ 0.2
14,SVWS,≤ 0.2
15,KLKK,≤ 0.2
16,SRHH,≤ 0.2
17,NSLL,≤ 0.2
18,RQFN,0.363
19,RPPV,≤ 0.2
20,DRGF,≤ 0.2
21,TQWG,≤ 0.2
22,SRNW,≤ 0.2
23,IDQT,≤ 0.2
24,DCTT,≤ 0.2

row,Variant,one-hybrid fitness for binding parS DNA
1,LMHI,≤ 0.2
2,SFCG,≤ 0.2
3,PSKN,≤ 0.2
4,QFST,≤ 0.2
5,RMYK,≤ 0.2
6,VGTE,≤ 0.2
7,GECK,0.213
8,CRFE,≤ 0.2
9,TTDD,≤ 0.2
10,QRLT,≤ 0.2
11,MRHL,≤ 0.2
12,KMCF,≤ 0.2
13,VYTL,≤ 0.2
14,RLSG,1.01
15,PVDS,≤ 0.2
16,WPLR,≤ 0.2
17,STFL,≤ 0.2
18,QNSW,≤ 0.2
19,HNMG,≤ 0.2
20,WSTV,≤ 0.2
21,HYHG,≤ 0.2
22,GAYC,≤ 0.2
23,TLSQ,≤ 0.2
24,QAAR,≤ 0.2

row,Variant,one-hybrid fitness for binding parS DNA
1,RKWL,≤ 0.2
2,MFAA,≤ 0.2
3,LLYL,≤ 0.2
4,GKMC,≤ 0.2
5,LCSC,≤ 0.2
6,DAKS,≤ 0.2
7,ARAY,≤ 0.2
8,CYKM,≤ 0.2
9,HRYH,≤ 0.2
10,PEMT,≤ 0.2
11,TSPT,≤ 0.2
12,ADAA,≤ 0.2
13,WFKL,≤ 0.2
14,QTDT,≤ 0.2
15,EVTL,≤ 0.2
16,FPRR,≤ 0.2
17,ADER,≤ 0.2
18,EACG,≤ 0.2
19,TSKN,≤ 0.2
20,FMPT,≤ 0.2
21,FPDT,≤ 0.2
22,QTMP,≤ 0.2
23,GSLG,≤ 0.2
24,SAGT,≤ 0.2

row,Variant,one-hybrid fitness for binding parS DNA
1,AVCG,≤ 0.2
2,CEPT,≤ 0.2
3,THLW,≤ 0.2
4,LGHW,≤ 0.2
5,LFDT,≤ 0.2
6,MMRE,≤ 0.2
7,RYKD,≤ 0.2
8,GESS,≤ 0.2
9,QHYG,≤ 0.2
10,GWLY,≤ 0.2
11,RYGS,0.901
12,TAGF,≤ 0.2
13,CQDG,≤ 0.2
14,HNVR,≤ 0.2
15,RRLL,≤ 0.2
16,QELF,≤ 0.2
17,RMIT,0.752
18,RARY,0.552
19,RAIS,0.942
20,TSEM,≤ 0.2
21,FLLC,≤ 0.2
22,GPSD,≤ 0.2
23,CIVR,≤ 0.2
24,FWKT,≤ 0.2

row,Variant,one-hybrid fitness for binding parS DNA
1,PDWG,≤ 0.2
2,LKPH,0.236
3,IPVR,≤ 0.2
4,CWLY,≤ 0.2
5,FTTI,≤ 0.2
6,QMYS,≤ 0.2
7,WSSF,≤ 0.2
8,PPTP,≤ 0.2
9,MIDS,≤ 0.2
10,CADR,≤ 0.2
11,PSDW,≤ 0.2
12,FAKR,≤ 0.2
13,AEEG,≤ 0.2
14,DVLN,≤ 0.2
15,SQPA,≤ 0.2
16,PPKA,≤ 0.2
17,AHKR,≤ 0.2
18,THSW,≤ 0.2
19,IVKE,≤ 0.2
20,SLNK,≤ 0.2
21,HSHI,≤ 0.2
22,PVEL,≤ 0.2
23,VRSF,≤ 0.2
24,WIWS,≤ 0.2

row,Variant,one-hybrid fitness for binding parS DNA
1,KWVS,≤ 0.2
2,STHK,≤ 0.2
3,PPSK,≤ 0.2
4,QLDV,≤ 0.2
5,RMCL,≤ 0.2
6,PVTV,≤ 0.2
7,QVSY,≤ 0.2
8,PNPN,≤ 0.2
9,RTGQ,≤ 0.2
10,QKKC,≤ 0.2
11,SICV,≤ 0.2
12,GWAK,≤ 0.2
13,LLQG,≤ 0.2
14,ASKV,≤ 0.2
15,LWWR,≤ 0.2
16,FVNS,≤ 0.2
17,DVRI,≤ 0.2
18,HIDW,≤ 0.2
19,FTPR,≤ 0.2
20,RYAQ,≤ 0.2
21,PRNH,≤ 0.2
22,AGPL,≤ 0.2
23,CRRA,≤ 0.2
24,MQHL,≤ 0.2

row,Variant,one-hybrid fitness for binding parS DNA
1,DPYG,≤ 0.2
2,RQKN,0.433
3,SMHT,≤ 0.2
4,PLSG,≤ 0.2
5,EQAA,≤ 0.2
6,TASS,≤ 0.2
7,HSPE,≤ 0.2
8,QNCS,≤ 0.2
9,AITY,≤ 0.2
10,QYMD,≤ 0.2
11,KSAV,≤ 0.2
12,NTFT,≤ 0.2
13,RAYQ,≤ 0.2
14,WADM,≤ 0.2
15,FLRS,≤ 0.2
16,TYVL,≤ 0.2
17,YKCS,≤ 0.2
18,VTQY,≤ 0.2
19,CFPR,≤ 0.2
20,RMII,≤ 0.2
21,HPAE,≤ 0.2
22,REWS,0.218
23,EHLG,≤ 0.2
24,LRAE,≤ 0.2

row,Variant,one-hybrid fitness for binding parS DNA
1,KYRP,≤ 0.2
2,GHSC,≤ 0.2
3,IDTS,≤ 0.2
4,IRCN,≤ 0.2
5,QTHD,≤ 0.2
6,RQPY,≤ 0.2
7,ITAV,≤ 0.2
8,CSGA,≤ 0.2
9,AWRR,≤ 0.2
10,TILI,≤ 0.2
11,KRKK,≤ 0.2
12,EWSS,≤ 0.2
13,PPPE,≤ 0.2
14,HGDT,≤ 0.2
15,CRNY,≤ 0.2
16,RKDI,≤ 0.2
17,SKQS,≤ 0.2
18,LVMV,≤ 0.2
19,WMRG,≤ 0.2
20,LYTM,≤ 0.2
21,DAID,≤ 0.2
22,ACSL,≤ 0.2
23,DCGT,≤ 0.2
24,LKYS,≤ 0.2

row,Variant,one-hybrid fitness for binding parS DNA
1,YTAE,≤ 0.2
2,VCRR,≤ 0.2
3,HNSS,≤ 0.2
4,DCPF,≤ 0.2
5,VPPK,≤ 0.2
6,WPQD,≤ 0.2
7,DRSS,≤ 0.2
8,TLGC,≤ 0.2
9,SYSR,≤ 0.2
10,KQRR,≤ 0.2
11,LDSL,≤ 0.2
12,QRFK,≤ 0.2
13,TGRS,≤ 0.2
14,RCTS,0.984
15,QLKY,≤ 0.2
16,SMIE,≤ 0.2
17,NSHY,≤ 0.2
18,YMAS,≤ 0.2
19,YLRL,≤ 0.2
20,KKNG,≤ 0.2
21,FPPL,≤ 0.2
22,GGEG,≤ 0.2
23,ECGC,≤ 0.2
24,FCFG,≤ 0.2

row,Variant,one-hybrid fitness for binding parS DNA
1,INND,≤ 0.2
2,LKPC,≤ 0.2
3,PYWE,≤ 0.2
4,PQAD,≤ 0.2
5,QRME,≤ 0.2
6,LDAV,≤ 0.2
7,CPHC,≤ 0.2
8,RDIN,≤ 0.2
9,QAYA,≤ 0.2
10,VNTL,≤ 0.2
11,ATDE,≤ 0.2
12,TGFL,≤ 0.2
13,HWMT,≤ 0.2
14,MMMK,≤ 0.2
15,KTLN,≤ 0.2
16,HNVV,≤ 0.2
17,YESM,≤ 0.2
18,QESW,≤ 0.2
19,DNWT,≤ 0.2
20,MCMC,≤ 0.2
21,PNWY,≤ 0.2
22,CRST,≤ 0.2
23,CQQS,≤ 0.2
24,RAWT,0.809

row,Variant,one-hybrid fitness for binding parS DNA
1,ICWR,≤ 0.2
2,GRKF,≤ 0.2
3,GEGT,≤ 0.2
4,LGIG,≤ 0.2
5,LMGS,≤ 0.2
6,QWPT,≤ 0.2
7,RGSV,≤ 0.2
8,QTFY,≤ 0.2
9,CRER,≤ 0.2
10,MVDQ,≤ 0.2
11,NHMW,≤ 0.2
12,VCTA,≤ 0.2
13,HSYM,≤ 0.2
14,FFLW,≤ 0.2
15,RMLC,0.983
16,PSYW,≤ 0.2
17,GAHP,≤ 0.2
18,FYRT,≤ 0.2
19,MPKF,≤ 0.2
20,SDYS,≤ 0.2
21,VCNC,≤ 0.2
22,YRPM,≤ 0.2
23,KQDC,≤ 0.2
24,FRLS,≤ 0.2

row,Variant,one-hybrid fitness for binding parS DNA
1,VSIP,≤ 0.2
2,PGNY,≤ 0.2
3,WCPL,≤ 0.2
4,LVHY,≤ 0.2
5,MSGM,≤ 0.2
6,VAKY,≤ 0.2
7,LSNR,≤ 0.2
8,TEQS,≤ 0.2
9,TMST,≤ 0.2
10,HMAI,≤ 0.2
11,CSAW,≤ 0.2
12,CDNY,≤ 0.2
13,WCLR,≤ 0.2
14,NNRI,≤ 0.2
15,HDTS,≤ 0.2
16,TITG,≤ 0.2
17,CSRY,≤ 0.2
18,PSPR,≤ 0.2
